Measurements from PMC12136788.
This is one part of the list.

T1: UNK ZnF1-3 (human, UniProt Q9C0B0 31-174)
T1 sequence: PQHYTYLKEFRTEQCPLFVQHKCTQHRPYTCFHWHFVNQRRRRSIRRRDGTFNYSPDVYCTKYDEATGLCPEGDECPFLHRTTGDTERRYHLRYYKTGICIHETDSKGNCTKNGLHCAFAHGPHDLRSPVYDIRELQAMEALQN

B1: chr17:53623224:53623225:+_ENSMUSG00000017831_ENSMUST00000017975|perfect_dup|motif|central (ssRNA)
RNA: GGGAGUUCUACAGUCCGACGAUCGGCCCGUUGGGUCUUGUUGCGCCUCGACUAGCCAUGUCCAAAUUUGAAAUAAGUCCCGGAUUUCAGACUCUUCAAUGAACUUCCAGAAUUCAAGGGGCCAAUAUUCUUCUUUCUGGAGGUCAACAGAGGAUUGAGCAUCA
B2: chrX:148277548:148277549:+_ENSMUSG00000025261_ENSMUST00000112622|mus_mus|FALSE|FALSE (ssRNA)
RNA: GGGAGUUCUACAGUCCGACGAUCAAGGACUGCCAGCACCACUUGCAUAUCAGAGGAAGCCAAUAAAGUUGUCAAAUGCUCUAUGGAACUGUACAGAUGCCGAGAAAAGCUGUACUCAAUGAGCAAGGCUGUGAAGUUCAAUACCAACAGAGGAUUGAGCAUCA
B3: 23954620_23954740_3588_CDS_ENSMUSG00000039218_ENSMUST00000088621|mouse|control|control (ssRNA)
RNA: GGGAGUUCUACAGUCCGACGAUCGUUACUUCCAGGCAUUUCUUUAUGUUCUGGAGAUAAACUGGGUAGAACUUGGCUUAAAGGUUGCUCAGACUUUUCUACUUCCAUUAGUUCAUCUUGACUUGAAUUAGGUAAUAAACUUUUCAACAGAGGAUUGAGCAUCA
B4: chr12:39756943:39756944:-_ENSG00000139116_ENST00000544797|hu_mus|hu_hu_hu_mus_False|8_88 (ssRNA)
RNA: GGGAGUUCUACAGUCCGACGAUCGGUUUGGCUGUUACCCCCAAGGGAAUCCUGUAGGAGUCUUGUCAGCUUAGAGUCUCUGUAAGGGACAUGGGUGGCUCUCUUGCUCUUGUCCCCCAAGGCGCUGAUUACAUUGCCAAGAGCCAACAGAGGAUUGAGCAUCA
B5: chr9:14812383:14812384:-_ENSMUSG00000031934_ENSMUST00000164273|mus_mus|mus_mus_mus_hu_True|1_28 (ssRNA)
RNA: GGGAGUUCUACAGUCCGACGAUCAUAGCCCAGGUAGAUACACGCUAACAGUAUAAUGAUGAGUGUCAGCAGGCGGCAGCUAAUGUACUUGAUGAUUAAAUUAUUAGAGUUCUUUUUUGUCUUCAAGUACUGCUCCACGAUUGGCAACAGAGGAUUGAGCAUCA
B6: chr13:100211666:100211667:-_ENSMUSG00000052727_ENSMUST00000064762|mus_hu|FALSE|FALSE (ssRNA)
RNA: GGGAGUUCUACAGUCCGACGAUCGUUGGCAGGAUGGGUGGUGCUUAGUAACUCCCCGAUCUCUUGAUCGGUGAAAAUCUCUAUGAAGUUCUGGAAGGAGAAAGAGCCGGACUGGAGAAUGAGCUCUCCGGUAUUUUCAAAGCACAACAGAGGAUUGAGCAUCA

These binders were tested against T1, UNK ZnF1-3 (assay: nsRBNS (natural sequence RNA bind-n-seq); RBNS binding buffer (assumed for nsRBNS): 25 mM Tris pH 7.5, 150 mM KCl, 3 mM MgCl2, 0.01% Triton X-100, 500 ug/ml BSA, 20 U/ml SUPERase-In, 4 C; UNK is unkempt and MSI1 is Musashi-1; names of the RNAs are library labels; protein concentration not given here; high values mean tight binding).

Row | Binder | binding signal
1 | B1 | 0.858 enrichment R
2 | B2 | 2.13 enrichment R
3 | B3 | 0.632 enrichment R
4 | B4 | 0.641 enrichment R
5 | B5 | 1.35 enrichment R
6 | B6 | 1.3 enrichment R
